We go through 69 compounds from PubChem BioAssay AID1240 (Sanford-Burnham Center for Chemical Genomics, 2008).

Hit rate of the full screen: of about 50,000 compounds, about 800 (1.6%) showed an effect of 50% or more. This is one part of the list.

For the assay, the target named is Bcl-2-like protein 10 (Homo sapiens) (UniProt Q9HD36). The assay can be described thus: Phenotype converters, Bcl-B/TR3 peptide binding displacement, primary biochemical FP (AID 1240).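 Also: 0% = Bcl-B with tracer peptide and DMSO and 100% = tracer peptide lacking Bcl-B.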 To be noted: GST-Bcl-B / FITC-TR3 peptide fluorescence polarization; stronger effect = higher value; compound at 3.75 mg/L.
Chain of UniProt Q9HD36 (Q9HD36 whole entry, looked up): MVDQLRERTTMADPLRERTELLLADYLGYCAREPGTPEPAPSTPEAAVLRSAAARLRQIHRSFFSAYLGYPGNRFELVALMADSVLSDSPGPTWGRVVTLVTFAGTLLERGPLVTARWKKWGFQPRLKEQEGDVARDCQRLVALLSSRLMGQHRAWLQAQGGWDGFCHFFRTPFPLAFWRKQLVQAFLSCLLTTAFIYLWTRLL
`CC(C)CC(=O)N1CCN(Cc2ccccn2)CC1`: the displacement is -12%.

Take `COc1ccc(-c2n[nH]c(=S)n2-c2ccccc2)cc1`: the displacement amounted to 3.2%.

On to `CC1(C)CC(=O)C2=C(C1)Nc1ccccc1NC2c1cccc(Br)c1` (centres undefined), for which the displacement came out at 2.4%.

`CCOC(=O)CCN1C(=O)/C(=C\c2cc(OC)c(OC)c(OC)c2)SC1=S`: the displacement was 10.6%.

On to `CC(C)C(=O)Nc1cc(I)ccc1C(=O)O`, for which the displacement was -4.6%.

`CCOc1ccc(/C=N/NC(=O)c2cc(C3CC3)[nH]n2)cc1`: the displacement is -8.1%.

For `O=C(O)c1ccccc1-c1ccc(/C=C2\SC(=Nc3ccccc3)N(c3ccccc3)C2=O)o1`, the displacement stood at 0%.

With `CCCOc1ccc(C(=O)NCCCCCC(=O)O)cc1`, the displacement came to 4.9%.

As to `Cc1ccc(-c2ccc(OCC(=O)Nc3cc(Cl)ccc3C)cc2)cc1`, the displacement was -6.2%.

With `O=S(=O)(c1ccccc1)N1C2C=CC(C2)C1(C(F)(F)F)C(F)(F)Cl` (centres undefined), the displacement is -0.6%.

As for `C(=NNc1cc(N2CCCCC2)nc(N2CCCCC2)n1)c1ccco1`, the displacement is -0.5%.

On to `CC(=O)Oc1c(C(C)C)cc(N(C(C)=O)c2ccccc2)cc1C(C)C`, for which the displacement turned out to be 7.8%.

Consider `O=C(Nc1nc2ccccc2s1)c1ccc(S(=O)(=O)N2CCCCC2)cc1`, for which the displacement is -3.3%.

For `O=C(CSc1ccccc1)Nc1cccc([N+](=O)[O-])c1`, the displacement is 13.1%.

With `CC1=C(C(=O)OCC2CCCO2)C(c2cccc(C(F)(F)F)c2)C2=C(CCCC2=O)N1` (centres undefined), the displacement worked out at 6.7%.

For `Cc1c(NC(=O)c2ccc(-c3cccc(Cl)c3)o2)cccc1-c1nc2ncccc2o1`, the displacement was 8.4%.

On to `O=C(CSc1cccc2cccnc12)c1ccc(-c2ccccc2)cc1`, for which the displacement came out at 21.5%.

As to `CCOC(=O)c1c(C)nc2n(/N=C/c3ccccc3[N+](=O)[O-])c3ccccc3n12`, the displacement stood at 11.2%.

As to `CC(C)COc1ccc(C(=O)NCc2cccnc2)cc1`, the displacement was -10.9%.

In the case of `CCN(CC)c1ccc(/C=N/NC(=O)c2cc(C34CC5CC(CC(C5)C3)C4)[nH]n2)cc1`, the displacement is -7.4%.

Turning to `CCN(CC)C(=O)C(=O)N/N=C/c1ccc(Cl)cc1Cl`, the displacement turned out to be 1.8%.

For `O=C(CCNS(=O)(=O)c1ccccc1[N+](=O)[O-])N(Cc1ccccc1)Cc1ccccc1`, the displacement was determined as 11.7%.

For `O=C(Oc1ccc([N+](=O)[O-])c(Cl)c1)c1c(F)cccc1F`, the displacement was -8.9%.

Regarding `Cc1ccc(C(=O)NC2C(=O)N3C2SC(C)(C)C3C(=O)O)o1` (centres undefined), the displacement is 11.6%.

`O=[N+]([O-])c1ccccc1C=NN1CCN(c2ccc(Cl)cc2)CC1`: the displacement is -2.6%.

In the case of `COC(=O)c1c(C)oc2ccc(OC(C)C(=O)O)cc12` (centres undefined), the displacement was found to be 10.3%.

Take `CC1CCN(C(=O)COc2ccc(-c3ccccc3)cc2)CC1`: the displacement amounted to 11.9%.

On to `Cc1oc(/N=C/c2cccc3ccccc23)c(C#N)c1C`, for which the displacement came out at 12.4%.

Consider `Cc1ccc(-c2nc3ccccc3o2)cc1NC(=O)c1ccccc1Br`, for which the displacement worked out at 18.1%.

As for `NNC(=O)COc1ccc2c(c1Br)CCCC2`, the displacement is -25.1%.

For the compound `O=[N+]([O-])c1cccc(CNC2CCCC2)c1`, the displacement was 12.4%.

`Cc1cccc(N2C(=O)CC(Sc3ncn[nH]3)C2=O)c1` (centres undefined): the displacement was found to be 8.5%.

In the case of `c1ccc(Nc2ncnc3sc4c(c23)CCC4)cc1`, the displacement was -9.5%.

`COc1c([N+](=O)[O-])c(=O)oc2ccccc12`: the displacement worked out at 16.9%.

On to `Cc1ccc(CNC(=O)c2ccc(N(C)S(=O)(=O)c3ccccc3)cc2)cc1`, for which the displacement was -6.2%.

As for `COCCNC(=O)CN(c1ccc(C)cc1)S(=O)(=O)c1ccc(SC)cc1`, the displacement amounted to 26.9%.

Regarding `O=C1NC(=O)N(c2ccc3c(c2)OCO3)C(=O)/C1=C/c1ccc(I)o1`, the displacement is 17.5%.

With `CC(C)c1ccc(NC(=O)CN(CCc2ccccc2)S(=O)(=O)c2ccccc2)cc1`, the displacement is -7%.

As for `CCC1CCCCN1S(=O)(=O)c1ccc(Cl)c([N+](=O)[O-])c1` (centres undefined), the displacement stood at 12.2%.

On to `COc1ccccc1NC(=O)c1ccc(Oc2ccc(C(=O)Nc3ccccc3OC)cc2)cc1`, for which the displacement was -1.8%.

With `CC(C)Oc1ccc(NC(=O)CSc2nc3ccccc3s2)cc1`, the displacement was found to be 11.8%.

As for `O=C1c2ccccc2C(=O)N1CCCc1nc2ccccc2c(=O)n1CCCn1ccnc1`, the displacement is -5.9%.

Regarding `O=C(CNC(=O)c1cccc(Cl)c1)N/N=C/C=C/c1ccccc1`, the displacement is 2.3%.

For `O=C(O)COc1ccc(NC(=O)c2ccco2)cc1`, the displacement came out at 15.4%.

In the case of `COc1ccccc1C/C(N)=N/OC(=O)c1cccc(I)c1`, the displacement was found to be 9.7%.

In the case of `CCOc1cc(C(=O)Nc2c(C)cc(C)cc2C)cc(OCC)c1OCC`, the displacement is -3.1%.

Consider `C/C(CC(C)(C)Nc1ccccc1)=N\O`, for which the displacement was -2.4%.

Take `COc1cccc(C(=O)Nc2ccc3oc(-c4ccc(F)cc4Cl)nc3c2)c1`: the displacement was determined as 17.1%.

`COc1ccc(Cl)cc1-c1n[nH]c(=S)o1`: the displacement came out at 5.6%.

Regarding `CCOc1ccc(S(=O)(=O)N(CC(=O)Nc2cccnc2)c2ccc(C)cc2)cc1`, the displacement is -6.4%.

Consider `CCOC(=O)C(Cc1cccc([N+](=O)[O-])c1)SC#N` (centres undefined), for which the displacement amounted to 11.2%.

For the compound `O=C1C=C/C(=N\S(=O)(=O)c2ccc(Cl)c([N+](=O)[O-])c2)c2ccccc21`, the displacement was 24.8%.

`CCOC(=O)C1=CN(c2ccc(C)cc2)C=C(C(=O)OCC)C1c1ccccc1OC`: the displacement stood at 5.4%.

As to `CCc1ccccc1NC(=O)CN(c1ccc(C)cc1)S(C)(=O)=O`, the displacement was found to be 9.9%.

With `O=C(COc1ccccc1[N+](=O)[O-])Nc1ccc2oc(-c3ccccc3F)nc2c1`, the displacement was found to be 2.9%.

For the compound `COc1ccc(C2=C/C(=C\c3ccc(OC)c([N+](=O)[O-])c3)C(=O)O2)cc1`, the displacement was determined as 2.7%.

As for `O=[N+]([O-])c1ccc(NCCCNS(=O)(=O)c2ccc(Cl)cc2)c(Cl)c1`, the displacement is -1.4%.

For `CCc1ccc(N2CC(C(=O)NCc3ccccc3OC)CC2=O)cc1` (centres undefined), the displacement was -0.3%.

`COc1ccc(/C=C/C(=O)c2cccc(Br)c2)c(OC)c1`: the displacement is -9.7%.

Turning to `CCOc1ccc(N2C(=O)CC(Sc3nc4ccc(OCC)cc4s3)C2=O)cc1` (centres undefined), the displacement came to 8.8%.

As for `CCC(C)N1C(=O)C(=O)N(C2CCCCC2)C1=O` (centres undefined), the displacement is 14.9%.

In the case of `CC(=O)Nc1ccc(-c2nc(-c3ccc4c(c3)C(=O)c3cc([N+](=O)[O-])ccc3-4)c(-c3ccccc3)[nH]2)cc1`, the displacement amounted to 7.1%.

As to `C[n+]1cc(N)cc2ccccc21`, the displacement came out at 19.7%.

With `O=C(Nc1cccc2ccccc12)c1cc([N+](=O)[O-])ccc1Cl`, the displacement was -7.3%.

Consider `O=C(O)c1cc(O)c2ccccc2c1O`, for which the displacement was determined as 7.8%.

In the case of `Cc1ccsc1/C=C1\SC(=S)N(CC(C)C)C1=O`, the displacement is 14.1%.

Take `COc1cc(-c2c(C#N)c(N)n3c(nc4ccccc43)c2C#N)ccc1O`: the displacement amounted to 14.7%.

With `COc1ccc(C2=C/C(=C\c3ccc(OC(C)=O)cc3OC(C)=O)C(=O)O2)cc1`, the displacement is -3.3%.

Turning to `Cc1ccc(OCC(=O)Nc2ccc(N(C)C)cc2)c(Br)c1`, the displacement worked out at 12.2%.
